Laboratory results as given in the supplement of paper PMC3334620.
The full ranking holds about 33,000 sequences; the median of “E-score (-0.5 to 0.5)” is about -0.035, and the highest 2% start at about 0.35. Some of the results follow.

The sequences below were run against T1, Pdr3 (UniProt P33200) (assay: PBM E-score (8-mer binding enrichment) (E-score (-0.5 to 0.5)); higher = stronger / more preferred TF binding; most listed sequences are background and not binding sites). Conditions: protein concentration: 200 nM; construct: GST-full length.
T1 sequence: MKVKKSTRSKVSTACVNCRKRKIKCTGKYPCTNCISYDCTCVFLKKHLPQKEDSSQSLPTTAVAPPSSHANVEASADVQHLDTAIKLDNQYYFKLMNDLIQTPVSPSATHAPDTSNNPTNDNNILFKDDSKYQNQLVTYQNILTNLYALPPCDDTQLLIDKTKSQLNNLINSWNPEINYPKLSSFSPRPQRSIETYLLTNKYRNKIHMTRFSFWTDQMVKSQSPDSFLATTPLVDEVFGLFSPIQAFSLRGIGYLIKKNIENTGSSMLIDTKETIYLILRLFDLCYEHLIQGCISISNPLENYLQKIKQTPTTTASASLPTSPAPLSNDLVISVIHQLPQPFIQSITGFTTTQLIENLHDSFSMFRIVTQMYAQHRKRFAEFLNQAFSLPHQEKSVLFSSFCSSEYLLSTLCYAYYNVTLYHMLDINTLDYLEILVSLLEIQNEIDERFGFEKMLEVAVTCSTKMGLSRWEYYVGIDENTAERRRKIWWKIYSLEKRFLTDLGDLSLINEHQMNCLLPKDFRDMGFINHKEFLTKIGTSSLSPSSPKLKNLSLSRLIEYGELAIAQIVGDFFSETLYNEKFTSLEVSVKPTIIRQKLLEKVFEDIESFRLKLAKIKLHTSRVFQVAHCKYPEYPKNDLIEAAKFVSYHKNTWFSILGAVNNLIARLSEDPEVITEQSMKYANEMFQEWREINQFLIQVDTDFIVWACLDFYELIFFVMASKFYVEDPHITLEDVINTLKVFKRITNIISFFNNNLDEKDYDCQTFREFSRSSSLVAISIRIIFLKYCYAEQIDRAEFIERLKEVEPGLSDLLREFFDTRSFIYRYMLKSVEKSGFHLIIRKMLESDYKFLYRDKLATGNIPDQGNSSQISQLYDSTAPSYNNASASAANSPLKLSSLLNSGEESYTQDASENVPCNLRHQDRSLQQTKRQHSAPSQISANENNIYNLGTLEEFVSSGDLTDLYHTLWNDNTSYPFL
Protocol: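 Universal 'all 10-mer' protein binding microarrays (Agilent AMADID 015681) probed with GST-tagged S. cerevisiae TFs (full-length or DBD) made by in vitro transcription/translation (PURExpress), about 100-200 nM. Bound TF was detected with fluorescent anti-GST. Each ungapped 8-mer (which stands for itself and its reverse complement) is scored by the PBM enrichment score (E-score), a modified Wilcoxon-Mann-Whitney statistic from -0.5 to +0.5, computed with the Universal PBM Analysis Suite. Scale: above 0.35 generally sequence-specific binding.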

First: AAATAATG
Second: CAACTTTA
The “PBM E-score” value of the first is higher: 0.104 for the first, -0.0602 for the second.

Compared with GAAACGGC, CCAAGCAC is lower in “PBM E-score” value: 0.202 for the first, -0.165 for the second.

Compared with GCCCGAGA, GATCACAA is lower in “PBM E-score” value: 0.236 for the first, 0.0256 for the second.

First: ATATACAA
Second: TATCAAAA
The “PBM E-score” value of the first is higher: 0.113 for the first, -0.111 for the second.

Compared with ACTACATC, CTCGTCAC is higher in “PBM E-score” value: -0.0573 for the first, 0.0572 for the second.

Compared with CCTCTTGA, GGCCTGTA is higher in “PBM E-score” value: -0.243 for the first, -0.0559 for the second.

Going from GTGGGGAA to AAGGCCAT, the “PBM E-score” value falls from 0.094 to 0.0255.

Compared with CTGCGCAC, GTGTGTAA is lower in “PBM E-score” value: 0.0573 for the first, -0.064 for the second.

Compared with AGAACCAC, ACGATCGT is higher in “PBM E-score” value: -0.101 for the first, 0.0151 for the second.

Going from CTCAATTC to CTCACGAG, the “PBM E-score” value falls from 0.00542 to -0.195.

Compared with AGAGGTTC, ATCATGCA is lower in “PBM E-score” value: 0.179 for the first, -0.167 for the second.

Compared with GGTGTTAA, GCCGGTCA is higher in “PBM E-score” value: -0.0241 for the first, 0.0765 for the second.

Going from GCGAAACA to ACCATTGC, the “PBM E-score” value falls from 0.0684 to -0.0273.

Going from CGAGTTAC to GTACGGAA, the “PBM E-score” value rises from 0.105 to 0.402.

Compared with AGACTGTG, ATATCCGC is higher in “PBM E-score” value: -0.235 for the first, 0.333 for the second.

First: CAAAAAGG
Second: AGTTGTTC
The “PBM E-score” value of the first is lower: -0.185 for the first, 0.0285 for the second.

Compared with CTAATGTC, TACCCGTA is higher in “PBM E-score” value: -0.0252 for the first, 0.0329 for the second.

First: CTCCTACC
Second: ATATCGGA
The “PBM E-score” value of the first is lower: -0.0881 for the first, 0.352 for the second.

Compared with CAGCCTGG, CGCGTAAC is higher in “PBM E-score” value: -0.2 for the first, -0.0838 for the second.

First: ATTAAAGC
Second: CAGCGCTC
The “PBM E-score” value of the first is lower: -0.0878 for the first, -0.0123 for the second.

Compared with TCACTCCA, CGGTCAGA is higher in “PBM E-score” value: 0.00763 for the first, 0.111 for the second.

Going from CTTCGCGA to AAAAGGGT, the “PBM E-score” value falls from 0.126 to -0.111.

Compared with TCGGATAA, TCTTATAA is lower in “PBM E-score” value: 0.307 for the first, 0.0994 for the second.

First: ATCGCCGA
Second: AGTCCCCA
The “PBM E-score” value of the first is higher: 0.154 for the first, -0.213 for the second.

Compared with ATCAGCCA, TACGGGGA is higher in “PBM E-score” value: -0.0047 for the first, 0.149 for the second.

Compared with AGGCCATC, TCAGGTAA is lower in “PBM E-score” value: -0.00459 for the first, -0.212 for the second.

Compared with AGCAGTTC, AAATGGAC is higher in “PBM E-score” value: -0.0749 for the first, 0.0692 for the second.

Compared with CGTTATAA, ACGCGGTA is lower in “PBM E-score” value: 0.135 for the first, 0.0327 for the second.

Going from GTTCAGTA to GCATATAC, the “PBM E-score” value rises from -0.125 to -0.0441.

First: CCGGTGCC
Second: ACCTAGCC
The “PBM E-score” value of the first is higher: 0.18 for the first, -0.131 for the second.

Going from AGGCTGTG to AACCCGGA, the “PBM E-score” value rises from -0.272 to 0.384.

Compared with ATGCCATC, AAAGATTT is lower in “PBM E-score” value: 0.12 for the first, 0.0656 for the second.

First: CATTCGCC
Second: CGTTATCC
The “PBM E-score” value of the first is lower: 0.0646 for the first, 0.0835 for the second.

Going from AACAGACC to CAACTCTG, the “PBM E-score” value falls from 0.0845 to -0.0464.

Going from CTCGGATC to CCTGACCG, the “PBM E-score” value falls from 0.386 to -0.0695.

First: CACAACAC
Second: CAGTCCGG
The “PBM E-score” value of the first is lower: -0.116 for the first, 0.217 for the second.

Going from ATTGCTCC to CTCCATTC, the “PBM E-score” value falls from 0.0646 to -0.0497.

Going from CACAGTAC to CTACGGTC, the “PBM E-score” value rises from -0.0825 to -0.066.

Going from AAATCATT to CCCTTTTC, the “PBM E-score” value rises from -0.104 to -0.0561.

First: AGAATCCC
Second: CTCGGGGC
The “PBM E-score” value of the first is lower: 0.0887 for the first, 0.144 for the second.

Going from GGGCAAAA to ACGGGCAT, the “PBM E-score” value falls from 0.216 to 0.0131.

Going from GAACGCTA to GCAGGGAC, the “PBM E-score” value rises from -0.185 to -0.176.

First: GCTAGAGC
Second: GTATAGCA
The “PBM E-score” value of the first is lower: -0.272 for the first, -0.0257 for the second.
